# Screen size: about 110,000 compounds; about 230 (0.21%) showed an effect of 50% or more. The list shows a part of the results.
# Target: DPAP1 (Plasmodium falciparum, UniProt Q8IIJ9)
# Assay: primary screen, percent inhibition; read by cleavage of a fluorogenic dipeptide substrate; higher = more effect of the substance
# Set-up: species or system P. falciparum D10 trophozoite lysates; single well
# 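Further: 30 min substrate incubation versus DMSO and 10 µM JCP410 controls.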
# DPAP1, sequence (Q8IIJ9 whole entry, looked up): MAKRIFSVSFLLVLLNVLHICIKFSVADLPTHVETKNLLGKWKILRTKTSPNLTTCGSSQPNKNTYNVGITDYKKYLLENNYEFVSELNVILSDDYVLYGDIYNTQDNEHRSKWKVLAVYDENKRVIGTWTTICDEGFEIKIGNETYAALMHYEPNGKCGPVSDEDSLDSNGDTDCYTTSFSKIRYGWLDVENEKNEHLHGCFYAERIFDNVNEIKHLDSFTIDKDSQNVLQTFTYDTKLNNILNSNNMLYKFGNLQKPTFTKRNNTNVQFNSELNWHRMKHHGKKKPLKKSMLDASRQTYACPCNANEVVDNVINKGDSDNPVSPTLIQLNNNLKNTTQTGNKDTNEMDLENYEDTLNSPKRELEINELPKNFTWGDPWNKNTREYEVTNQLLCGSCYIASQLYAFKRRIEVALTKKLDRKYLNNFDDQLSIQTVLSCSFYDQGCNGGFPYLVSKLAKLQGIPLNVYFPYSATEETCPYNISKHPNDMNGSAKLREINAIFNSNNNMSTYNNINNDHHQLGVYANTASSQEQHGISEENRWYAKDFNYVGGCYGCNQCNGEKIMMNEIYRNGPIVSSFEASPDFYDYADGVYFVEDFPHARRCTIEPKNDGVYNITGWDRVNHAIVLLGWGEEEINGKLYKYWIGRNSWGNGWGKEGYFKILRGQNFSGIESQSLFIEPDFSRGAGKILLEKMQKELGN
row,SMILES,% Inhibition @ 10 uM [%]
1,Clc1ccc2nc(NCc3ccc4c(c3)OCO4)c3nncn3c2c1,2.76
2,CC(C)Oc1ccc(C(=O)N(Cc2cccc(F)c2)C2CCS(=O)(=O)C2)cc1 (centres unmarked),-3.12
3,Cc1cc(=O)n2nc(N(C)CC(=O)NCCc3cccs3)sc2n1,3
4,Cc1c(Br)c(C(F)(F)F)nn1CC(=O)N1CCc2ccccc2C1,-1.35
5,NS(=O)(=O)c1cc(C(=O)Nc2ccccc2)ccc1Br,-4.08
6,Cc1ccc2c(c1)c1c3n2CC(=O)N(C(C)c2ccccc2)C3CCC1 (centres unmarked),3.47
7,CC[C@H](NC(=O)[C@H](CC(C)C)NC(=O)N1CCOCC1)C(=O)C(=O)NCc1ccccc1,-0.214
8,Cc1ccc(NC(=O)c2cccc([N+](=O)[O-])c2C)cc1Cl,-7.11
9,Cc1ccn(-c2ccc3cc(-c4ccccc4)c(=O)oc3c2)n1,-5.65
10,C/C(Cl)=C/CSc1nc2c(c(=O)[nH]c(=O)n2C)n1C/C=C(/C)Cl,4.09
11,Cc1ccnc(NC(=O)CSc2nnc3c4ccccc4n(C)c3n2)c1,-3.69
12,CCCNC(=O)CN(c1ccc(OC)cc1)S(C)(=O)=O,-2.74
13,O=C1N/C(=C/c2ccc(N3CCCC3)c(F)c2)C(=O)N1Cc1ccccc1F,0.161
14,CCOc1cc(C(=O)NCCn2c(C)cc3ccccc32)cc(OCC)c1OCC,-2.24
15,CCCOc1ccc(C(O)(CCN2CCCCC2)c2ccccc2OC)cc1 (centres unmarked),1.84
16,COc1ccc(N2C(=O)CSC2c2ccc(Cl)cc2)cc1 (centres unmarked),3.53
17,CCN1CCCC1CNC(=O)c1cc2c(-c3ccc(Cl)cc3)nn(C)c2s1 (centres unmarked),-8.9
18,C=CCn1c(CCCNC(=O)c2ccc(OC)c(OC)c2)nc2ccccc21,0.121
19,Cc1cc2cc(OCC(=O)O)ccc2n1C,3.88
20,O=C(NCCOCc1ccccc1)C(c1ccccc1)c1ccccc1,20.5
21,COc1cccc(C(O)(c2ccccn2)c2ccccn2)c1,8.81
22,CCOc1ccc(C(=O)NCCc2ccc(S(N)(=O)=O)cc2)cc1,0.323
23,CCOc1ccc2oc(=O)cc(CN(Cc3ccco3)CC3CCCO3)c2c1 (centres unmarked),-1.71
24,Cc1nnc(O)nc1NCCCN(C)C,-4.84
25,c1ccc(-c2cc(-c3ccccc3)nc(N3CCCCC3)n2)cc1,-0.969
26,O=C(Nc1ccccc1Cl)c1cccc(Br)c1,-1.92

row,SMILES,% Inhibition @ 10 uM [%]
1,O=C(Nc1ccc(Cl)cc1F)C1CC(=O)N(c2ccc(Br)cc2)C1 (centres unmarked),4.05
2,Cc1ccc2c(Cl)c(C(=O)Nc3cc(=O)n(C)c(=O)n3C)sc2c1,-2.8
3,O=c1c2c([nH]c(=S)n1-c1ccccc1)-c1ccccc1CC21CCCC1,-0.712
4,Cc1ccc(-c2noc(CCC(=O)NCCc3cccc(C)c3)n2)cc1,2.42
5,COCCCN1C(=O)C(O)=C(C(=O)c2ccc(C)cc2)C1c1ccccc1 (centres unmarked),-3.34
6,CCOc1cc(Br)ccc1S(=O)(=O)N1CCC(C(N)=O)CC1,-7.17
7,CCN(CC)/C(=N\O)c1ccc(Br)cc1,-2.63
8,Clc1ccccc1OCCCCN1CCCCC1,3
9,CSc1sc(SC)c(C[n+]2ccccc2)c1C[n+]1ccccc1,1.66
10,O=C(c1cc(Cl)cc(Cl)c1)N1CCCCCC1,3
11,CCN1CCCC1CNC(=O)Cn1cc2c(n1)CCC(C)C2 (centres unmarked),4.95
12,COC(=O)C1CCCN1Cc1ccc(Cl)cc1 (centres unmarked),3.15
13,Cc1c(C(=O)Nc2ccccc2)sc2nc3n(c(=O)c12)CCCCC3,-3.71
14,Cc1cc(NC(=O)CSc2nc3c(c(=O)n2CCc2ccccc2)SC(C)C3)no1 (centres unmarked),-2.32
15,Cc1nc(N2CCOCC2)c2ccccc2n1,2.25
16,O=C(CCC1CCCCC1)N1CCN(Cc2ccccc2)CC1,-2.2
17,COc1cc(OC)cc(-c2cc3nc(C)c(CCC(=O)Nc4nc(C)cs4)c(C)n3n2)c1,-4.1
18,CC(=O)c1cc(C#N)c(SCc2c(F)cccc2Cl)nc1C,-7.55
19,Cn1c2c(c(=O)n(C)c1=O)C(c1ccccc1)C(C#N)=C(N)O2 (centres unmarked),-0.996
20,COc1ccc(C(=O)Nc2ccccc2NC(=O)c2ccc(OC)cc2)cc1,-2.98
21,C1=C(CCNCc2ccccc2)CCCC1,3.05
22,O=C(COc1ccc(Cl)cc1Cl)Nc1ccc(S(=O)(=O)N2CCCC2)cc1,3.96
23,CCCCn1c(C(CCSC)NC(=O)c2ccccc2)nc2ccccc21 (centres unmarked),-1.82
24,CCc1ccc(CNc2nc3nc(C)c(Cl)c(C)n3n2)cc1,2.62
25,COc1ccc(-c2nc3cc(C(=N)NC(C)C)ccc3n2C)cc1OC,2.27
26,CC(C)NC(=O)CCn1cnc2onc(-c3ccc(F)cc3)c2c1=O,-1.97

row,SMILES,% Inhibition @ 10 uM [%]
1,CCOC(=O)N1CCC(NCc2cccc(C(F)(F)F)c2)CC1,-0.0908
2,Oc1c(C(c2ccccn2)N2CCN(c3ccccn3)CC2)cc(Cl)c2cccnc12 (centres unmarked),-1.04
3,Cc1c(Cl)cccc1N(CC(=O)N1CCN(c2cccc(Cl)c2)CC1)S(C)(=O)=O,4.59
4,CCOc1ccc(NC(=O)CN2C(=O)S/C(=C/c3c(C)[nH]c4ccccc34)C2=O)cc1,-2.22
5,N#CC1=C(N)Oc2c(c(O)nc3ccccc23)C1c1ccc(F)c(F)c1 (centres unmarked),-2.21
6,CCc1cc2c(=O)c(-c3nc4ccccc4n3C)c(C)oc2cc1O,-1.07
7,Cc1ccc(C)n1-c1nnc(N2CCCC(C(=O)NCCCN3CCOCC3)C2)s1 (centres unmarked),2.65
8,COC(=O)c1ccc(S(=O)(=O)N(Cc2ccco2)Cc2cc3ccc(C)cc3nc2O)cc1,8.37
9,COCCN1C=C(C(=O)OC)C(c2cccs2)C(C(=O)OC)=C1,-1.33
10,COc1cc(-c2cc(C(=O)O)c3cc4c(cc3n2)OCCO4)ccc1O,5.19
11,Cc1c(C(=O)NCCCN2CCCC(C)C2)sc2nc3n(c(=O)c12)CCCCC3 (centres unmarked),-7.32
12,CCOc1cc(Cl)c(C(C)NC(=O)c2ccc(OC)cc2)cc1OCC (centres unmarked),-3.09
13,COc1ccc(S(=O)(=O)NCCC2CCCN2C)cc1 (centres unmarked),0.661
14,COC(=O)c1ccc(COc2ccc3c(=O)c(-c4ccc(Cl)cc4)coc3c2)cc1,-2.98
15,COc1ccc(CNC(=O)CN(c2ccc(F)cc2)S(=O)(=O)c2ccccc2)cc1,-15.9
16,Cc1cc(C)nc(SCCN2CCOCC2)n1,-0.636
17,Cc1ccc(CS(=O)Cc2ccc(C(=O)NCC3CCCO3)o2)cc1 (centres unmarked),1.63
18,OC(Cc1cccnc1)c1ccccc1 (centres unmarked),-6.06
19,COc1ccc(S(=O)(=O)Cc2ccc(C(=O)NCCCc3ccccc3)o2)cc1,12
20,O=C(CN1C(=O)c2cccc3cccc(c23)C1=O)NCCN1CCOCC1,3.47
21,CC(=O)NS(=O)(=O)c1ccc(NC(=O)c2ccc(-c3ccccc3)cc2)cc1,0.793
22,CCOC(=O)c1c(C)c(C(=O)NCCOC)c(C)n1CC,3.32
23,COc1cc([C@H]2NCC[C@@]3(O)CCCC[C@H]23)cc(OC)c1O,-1.8
24,C=CCSc1ncc(Cl)c(C(=O)Nc2nc3ccc(C)cc3s2)n1,-0.946
25,CCc1ccc(C2C(C#N)=C(N)Oc3c2c(C)nn3-c2ccccc2)cc1 (centres unmarked),-2.07
26,Cc1ccc2[nH]c3c(c2c1)CCCC3NCc1ccccc1 (centres unmarked),2.86

row,SMILES,% Inhibition @ 10 uM [%]
1,COc1cc(C(=O)N2CCN(Cc3cccc(C)c3)CC2)cc(OC)c1OC,-5.85
2,O=C(NCC1CCCO1)c1sc2ccccc2c1Cl (centres unmarked),4.81
3,CC(=O)c1ccc(NS(=O)(=O)c2ccc(C)c(S(=O)(=O)Nc3ccc(C(C)=O)cc3)c2)cc1,0.361
4,CCO/C(O)=C1\C(C)=NC2=C(C(=O)CC(C)(C)C2)C1c1ccccc1Br (centres unmarked),1.84
5,Cc1nc2ccccc2c2oc(C(=O)NC3CCCCC3C)cc12 (centres unmarked),10.4
6,OCCN1CCN(c2ncnc3c2cnn3-c2ccc(F)cc2)CC1,-3.02
7,O=C(CN(CCc1ccccc1)S(=O)(=O)c1ccccc1)Nc1cccc(Br)c1,0.431
8,CCOc1ccc(N2C(=O)CC(Cc3cccc(C)c3)C2=O)cc1 (centres unmarked),-9.76
9,CCCCN(C)CCCNC(=O)C1CCN(c2nc3c(C)cc(C)cc3s2)CC1,1.8
10,Cc1ccc(C(=O)c2coc3ccc(Br)cc3c2=O)cc1,4.33
11,CCN(CC)CC(=O)NCC1(c2ccccc2)CCOCC1,1.84
12,Cc1ccc(N(CC(=O)Nc2cccc3cccnc23)S(=O)(=O)c2ccc(C)cc2)cc1,-3.69
13,C=CCOC(=O)c1cc(-c2ccc(/C=C3/C(=O)N(CCCO)C(=O)C(C#N)=C3C)o2)ccc1Cl,0.487
14,COc1ccc(OC)c(C(=O)c2coc3ccc(OCC(=O)O)cc23)c1,-0.807
15,COCc1cc(C)nc(SCC(=O)Nc2cccc3ccccc23)c1C#N,3.46
16,COc1ccc(Cl)cc1-n1nnc(-c2nc(-c3cccs3)no2)c1N,0.331
17,CC(C)Oc1ccc(C(=O)Nc2ccc3ccccc3c2)cc1,3.49
18,Cc1ccccc1OCC(=O)Nc1ccccc1Cl,-0.872
19,CC1(C)CC(=O)c2cc(OCC(=O)NCCN3CCOCC3)ccc2O1,-2.65
20,CC(C)CCNC(=O)c1cc2c(-c3ccc(Cl)cc3)nn(C)c2s1,-3.09
21,COc1ccc(NC(=O)C2CC(=O)N(c3ccc(C)cc3)C2)cc1Cl (centres unmarked),-7.63
22,CCc1ccc(CNC(=O)c2cn(CC(C)C)c(=O)c3c2c2ccccc2n3C)cc1,-0.0541
23,CCCCC(=O)Nc1cccc2cccnc12,21.2

# From publication PMC6919601, “Identification of Plasmodium dipeptidyl aminopeptidase allosteric inhibitors by high throughput screening” (PLoS ONE, 2019)
